Results reported in PubChem BioAssay AID938 (National Center for Advancing Translational Sciences (NCATS), 2007).
Values joined by “and” are separate entries in the source; they are usually repeats but may differ in a detail not shown here. Equal entries are not always repeated. Among all 73,000 compounds or so, about 1,800 (2.5%) were called active. The inconclusive results got no clear call from the source; some entries with a clear call stand among them for comparison. Calls come from the whole dose curve; as a rule, active = well fitted activation curve with a large enough effect; inconclusive = small, poorly fitted or top-dose-only effect; inactive = no such curve, though single readings can be large or run the other way. Where the call is inconclusive, the potency comes from a doubtful curve fit.

Test: qHTS Assay for Agonists of the Thyroid Stimulating Hormone Receptor: Activators of Intracellular cAMP Concentrations in Parental HEK 293; note: nearly all actives have a fitted effect of over 55% in size; for activation: % of control where 0% means no effect
Details: parental HEK293 CNG cAMP sensor, membrane potential fluorescence; activation: at 57.1 µM (top of the series) unless noted
How it was run: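 Parental HEK 293 cells stably expressing a cAMP-gated CNG channel were loaded with membrane potential dye containing 100 uM RO 20-1724 for 60 min. Compound added for 30 min; depolarization read as fluorescence intensity at 590 nm.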
Potency is the fitted concentration of half-maximal effect; tags give direction and shape of the fitted curve.

| SMILES | Potency | activation |
| --- | --- | --- |
| CC1CCC2C(=O)OC(Cc3ccccc3)CN2C1c1ccc(Br)cc1 (centres undefined) | inconclusive: 5.01 µM [activator, single point] and inconclusive: 6.31 µM [activator, single point] |  |
| COC(=O)[C@@]1(Cc2ccccc2)C=C[C@@H](C)N1C(=O)c1ccccc1 | active: 31.6 µM |  |
| CC1(C)Cc2ccccc2-c2nnc(SCC(=O)Nc3nc4ccccc4s3)n21 | active: 5.01 µM |  |
| Cc1cc(C)c(C#N)c(Nc2ccccc2Cl)n1 | inconclusive: 39.8 µM [activator, single point] |  |
| CCN(C)c1ccc(/C=N\n2nnnc2N)cc1 | inactive |  |
| COc1ccc2c(Cl)c(C(N)=O)sc2c1 | inconclusive: 39.8 µM [activator, single point] |  |
| Cc1ccc(-c2cc(C(=O)NCc3ccc4c(c3)OCO4)[nH]n2)c(O)c1C | inconclusive: 20 µM [activator, partial curve] |  |
| COc1ccc(-c2cc(C(F)(F)F)nc(SCCC(=O)NCc3ccco3)n2)cc1 | inconclusive: 7.94 µM [activator, partial curve] |  |
| CCOC(=O)N1CCC(Nc2ncnc3c2cnn3-c2ccc(C)cc2C)CC1 | inconclusive: 7.94 µM [activator, single point] |  |
| N[C@H](C(=O)O)c1cc(O)cc(O)c1 | inconclusive: 25.1 µM [activator, single point] |  |
| COc1cccc(NC(=O)N2CCC(C(=O)Nc3ccc(C)cc3C)CC2)c1 |  | inconclusive: 101% [activator] |
| O=C1C2C3CCCC3=C3CCCC3C2C(=O)N1c1ccc(F)cc1 (centres undefined) | inconclusive: 3.98 µM [activator, partial curve] |  |
| COc1cccc(-c2cc(C(F)(F)F)n3ncc(C(=O)NCC4CCCO4)c3n2)c1 (centres undefined) | inconclusive: 5.01 µM [activator, partial curve] |  |
| C[C@@H](C(=O)Nc1ccc2ccccc2c1)[C@@H]1C[C@@]1(C)[C@@H](N)c1ccccc1 | inconclusive: 31.6 µM [activator, single point] |  |
| CC(Oc1ccc(Br)cc1)C(=O)N1CCc2ccccc21 (centres undefined) | active: 25.1 µM |  |
| O=c1c2ccccc2sc2nc(C3CCCCC3)n(Cc3ccco3)c(=O)c12 | inconclusive: 25.1 µM [activator, single point] |  |
| CCOc1cc(S(=O)(=O)NCc2ccc3c(c2)OCO3)ccc1F | inconclusive: 39.8 µM [activator, single point] |  |
| Oc1[nH]c2ccccc2c1C=Nc1ccc2c(c1)OCO2 | inactive |  |
| CCOc1ccc2c(c1)cc(CN(C(=O)CC)C1CCCCC1)c1nnnn12 | active: 20 µM |  |
| CCOC(=O)C(CC)Sc1nc(-c2ccc(OC)cc2)nc2c1c(=O)n(C)c(=O)n2C (centres undefined) | inconclusive: 1.58 µM [activator, full curve] |  |
| COC(=O)[C@@]1(Cc2ccccc2)[C@H]2c3cc(C(=O)N4CCCC4)n(Cc4nc5ccccc5[nH]4)c3C[C@H]2CN1C(=O)c1ccccc1 | inconclusive: 12.6 µM [activator, partial curve] |  |
| COc1ccc(C/C(O)=C(\C#N)c2nc3ccccc3s2)cc1 | active: 31.6 µM |  |
| CCOC(=O)c1c(NC(=O)c2cc(C3CC3)on2)sc(C(C)=O)c1C | inconclusive: 6.31 µM [activator, single point] |  |

| SMILES | Potency | activation |
| --- | --- | --- |
| O=C(CCC(=O)OCC(F)(F)C(F)F)Nc1ccc(Cl)cc1 | active: 31.6 µM |  |
| COc1cccc(Cn2c(=O)c(C)nc3cnc(OC)nc32)c1 | inconclusive: 0.501 µM [activator, full curve, poor fit] |  |
| CCCNC(=O)OC[C@@H]1O[C@H](CCON=C(C)C)C=C[C@@H]1Oc1ccc(OC)cc1 |  | inactive: -2.21% [at 11.4 µM] |
| CCc1ccc(NS(=O)(=O)c2ccc3[nH]cc(C(=O)N4CCCCC4)c(=O)c3c2)cc1 | inactive |  |
| O=C(Nc1ccccc1)N1CCC(C(=O)N2CCN(S(=O)(=O)c3cccc(F)c3)CC2)CC1 | inconclusive: 39.8 µM [activator, single point] |  |
| O=C(N/N=C1/C[C@@H](O)[C@@H](O)[C@@H]2[C@@H]3C(=O)N(C4CCCCC4)C(=O)[C@H]3CC[C@H]12)OCc1ccccc1 |  | inactive: 7% [at 11.4 µM] |
| CN(C)Cc1c(O)ccc2oc(Cc3ccccc3)cc12 | inconclusive: 31.6 µM [activator, single point] |  |
| O=C(NCc1ccco1)C1OCCc2ccccc21 (centres undefined) | inconclusive: 31.6 µM [activator, single point] |  |
| CCOC(=O)c1c(N)sc(C(=O)N2CCCCCC2)c1C | inconclusive: 31.6 µM [activator, single point] |  |
| O=C(C1CC1)N1CCc2cc(Br)cc(S(=O)(=O)NCc3ccco3)c21 | inconclusive: 15.8 µM [activator, partial curve] |  |
| O=C(O)CCCCCC[C@@H]1C(=O)NC(=O)N1CC[C@@H](O)C1CCCCC1 | active: 2 µM |  |
| CCOC(=O)CCCc1sc(N)nc1-c1[nH]c(=O)[nH]c1C | inactive |  |
| O=C(c1cc(S(=O)(=O)N2CCCCC2)ccc1F)N1CCCCC1 | inconclusive: 39.8 µM [activator, single point] |  |
| O=C(Nc1ccc(F)cc1F)c1cc(-c2ccco2)on1 | inactive |  |
| CCOC(=O)c1nn(-c2ccccc2)c(=O)c2c(N)scc12 | inactive |  |
| O=C(c1ccc(-n2c(=O)c(=O)[nH]c3ccccc32)cc1)N1CCCN(Cc2ccccc2)CC1 | inactive |  |
| O=C(C1CCN(S(=O)(=O)c2cccc3cccnc23)CC1)N1CCN(c2ccc(Cl)cc2)CC1 | inconclusive: 3.98 µM [activator, full curve, poor fit] |  |
| Cc1cccc(Cn2c(=O)c3c(nc4n3CCN4Cc3ccco3)n(C)c2=O)c1 | inconclusive: 0.501 µM [activator, partial curve, poor fit] |  |
| CC(C)Cc1cc(C(=O)N2CCN(c3ccc(F)cc3)CC2)no1 | inconclusive: 10 µM [activator, partial curve] |  |
| Nc1nc(NCCc2ccc(O)cc2)nc2nc(-c3ccco3)nn12 | inactive |  |
| COc1cccc(Nc2ncc3nc(-c4cc(F)cc(F)c4)c(=O)n(CCC#N)c3n2)c1 | inactive |  |
| COc1ccc(Oc2ncc3nc(-c4ccc(OC)cc4)c(=O)n(CCC#N)c3n2)cc1 | inconclusive: 39.8 µM [activator, single point] |  |
| CCc1c(C(=O)Nc2nnc(C3CC3)s2)csc1C | inactive |  |

| SMILES | Potency | activation |
| --- | --- | --- |
| FC(F)(F)c1cccc(Nc2ncnc3ccccc23)c1 | inconclusive: 15.8 µM [activator, partial curve] |  |
| CC(C)=NOC[C@@H](O)[C@@H]1O[C@@H]2OC(C)(C)O[C@@H]2[C@H]1O |  | inactive: -2.09% [at 11.4 µM] |
| Cc1c(C(=O)NCCN2CCOCC2)sc2nc(-c3ccc(F)cc3)cn12 | inconclusive: 31.6 µM [activator, single point] |  |
| COC(=O)[C@@H]1[C@@H](O)[C@]2(O)c3ccccc3O[C@]2(c2ccccc2)[C@H]1c1ccccc1 |  | inactive: 0.0421% [at 11.4 µM] |
| Oc1ccccc1OCc1nc2ccccc2s1 |  | inactive: -8.11% [at 11.4 µM] |
| O=C(CCS(=O)(=O)c1ccc(Cl)cc1)Oc1ccc2c(c1)OCO2 | inconclusive: 0.631 µM [activator, single point] |  |
| N#CCCN1CCN(S(=O)(=O)c2ccc(S(=O)(=O)N3CCCC3)cc2)CC1 | inconclusive: 6.31 µM [activator, single point] |  |
| COc1cccc(N2C(=O)CC(Nc3ccc(N4CCOCC4)cc3)C2=O)c1 (centres undefined) | inactive |  |
| COc1ccc(NC(=O)c2ccco2)cc1NC(=O)c1ccco1 | inconclusive: 3.16 µM [activator, single point] |  |
| COc1ccc(C2=Nn3c(nnc3-c3ccc(OC)cc3)SC2)cc1 | inconclusive: 31.6 µM [activator, single point] |  |
| CCOC(=O)c1nnsc1NC(C)=O | inconclusive: 6.31 µM [activator, single point] |  |
| O=C(OCCN1C(=O)c2ccccc2C1=O)c1ccc(S(=O)(=O)N2CCCCCC2)cc1 | inconclusive: 10 µM [activator, partial curve] |  |
| CC(C)(C)n1nnnc1C(c1cccs1)N(Cc1ccccc1)Cc1cccnc1 (centres undefined) | active: 15.8 µM |  |
| Cc1ccc(C(C)C)c(OCc2nnc3n2CCCCC3)c1 | inconclusive: 20 µM [activator, partial curve] |  |
| C/C(CCc1oc2ccccc2c1-c1ccc(C)o1)=N/O | inactive |  |
| COc1ccc(-c2nc3ccccc3c(=O)n2CCCn2ccnc2)cc1 | inconclusive: 12.6 µM [activator, partial curve] |  |
| O=C(CSc1nc2ccccc2o1)Nc1nc2ccccc2s1 | inconclusive: 12.6 µM [activator, partial curve] |  |
| COc1cccc(C(=O)N(Cc2nc(-c3ccc(C)cc3)no2)C(C)C)c1 | inconclusive: 12.6 µM [activator, partial curve] |  |
| O=C(COc1ccc(Cl)cc1Cl)N1CCCCCC1 | active: 3.98 µM |  |
| Cc1ccc(-c2nc3ncccc3o2)cc1NC(=O)c1cc2ccccc2o1 | inconclusive: 0.316 µM [activator, full curve, poor fit] |  |
| COC(=O)C1=C(C)Nc2ccc(C)cc2S1 | inactive |  |
| CCCS(=O)(=O)N1CCCC(c2nc(-c3cccc(OC)c3)no2)C1 (centres undefined) | inconclusive: 31.6 µM [activator, single point] |  |
| Clc1ccc(Cl)c(-c2nn3c(COc4ccccc4)nnc3s2)c1 | inconclusive: 25.1 µM [activator, single point] |  |
